50 compounds from ChEMBL document CHEMBL5308541, “MAIP: An Open-Source Tool to Enrich High-Throughput Screening Output and Identify Novel, Druglike Molecules with Antimalarial Activity” (ACS Med Chem Lett, 2023) can be followed below.

In all, about 150,000 compounds went through this assay and about 540 (0.36%) showed an effect of 50% or more. This is one part of the list.

The experiment relates to Plasmodium falciparum. In words: Primary screen in NF54 nanoGlo assay, in single point, at 2uM, 72h; a lower Z score goes with more inhibition. In kind it is functional, Erythrocyte. Conditions: timepoint 72 hour.
Broadly, the % Inhibition is the relative decrease from the control value, in per cent. Take `C[C@@H](C(=O)N1Cc2ccccc2OC2(CCN(C(=O)c3cnc4[nH]ncc4c3)CC2)C1)N(C)CC(F)(F)F`: the “% Inhibition” value was -3% and the Z score came out at 0.5.

Take `O=C(Nc1ccc2[nH]ncc2c1)[C@@H]1COCCN1C1CCCC1`: the “% Inhibition” value is recorded as -6% and the Z score turned out to be 1.01.

As to `Cc1cc(C)c2nc(CN3CCN(CC(=O)NC(C)C)CC3)cc(O)c2c1`, the “% Inhibition” value was -4% and the Z score was 0.68.

On to `c1ncc(-c2ccc3c(c2)CCN3)cc1NCC1CC1`, for which the “% Inhibition” value came out at 0% and the Z score is recorded as -0.08.

Turning to `NC(=O)C1(N2CCCCC2)CCN(c2ncnc3c2[nH]c2ccc(F)cc23)CC1`, the “% Inhibition” value is -1% and the Z score is on record as 0.12.

For the compound `FC(F)Oc1cccc(CNc2nn3cc(-c4cccnc4)nc3s2)c1`, the “% Inhibition” value is listed as -14% and the Z score is 2.06.

For the compound `c1ccc2c(CNCCC3CCN(c4ccncc4)CC3)csc2c1`, the “% Inhibition” value is given as 80% and the Z score is listed as -17.16.

In the case of `Cc1ccc(-c2cc(C(=O)N[C@H]3CCCN(Cc4cccnc4)C3)[nH]n2)cc1`, the “% Inhibition” value is -16% and the Z score is 2.82.

For the compound `COc1c2c(cc3c1[C@H](CNC(=O)CCc1cn(C)c4ccccc14)N(C)CC3)OCO2`, the “% Inhibition” value is listed as -7% and the Z score was 1.06.

As for `CC(C)CC1(C(=O)N2CCN(C(=O)N(C)C)CC2)CCCC1`, the “% Inhibition” value was determined as 5% and the Z score is -1.05.

In the case of `Cc1cc2nc(CN(C)C(=O)C[C@H]3CCNC3)[nH]c2cc1C`, the “% Inhibition” value is -4% and the Z score is 0.68.

Consider `CC(C)Oc1cc(NCCN2CCC[C@H](CO)C2)nc(N)n1`, for which the “% Inhibition” value is -17% and the Z score is 3.77.

For the compound `CC(=O)N[C@@H](C)C(=O)NC(C)(C)c1ccc(OC(F)(F)F)cc1`, the “% Inhibition” value turned out to be 4% and the Z score was -0.7.

`Cc1nc(NC2COCC2N2CCN(C)CC2)cc(C2CCNCC2)n1` (stereo not given): the “% Inhibition” value is reported as -2% and the Z score was determined as 0.31.

Regarding `CC1(C)[C@@H](c2cccc(Cl)c2)CCN1CCC(=O)O`, the “% Inhibition” value is on record as -3% and the Z score is on record as 0.58.

`COc1ccnc(NC2CCN(C(=O)[C@H](C)N3CCc4ccccc43)CC2)n1`: the “% Inhibition” value is -7% and the Z score is 1.12.

On to `O[C@@H](CNc1nccc(N2CCOCC2)n1)COc1ccc(F)c(F)c1`, for which the “% Inhibition” value was -8% and the Z score turned out to be 1.28.

As to `CCN(CCC(=O)N1CCN(c2ccccn2)CC1)C1CCN(C(C)c2ccccc2)C1` (stereo not given), the “% Inhibition” value worked out at 6% and the Z score is reported as -1.2.

For `O=C(CN1CCOCC1)NC[C@H]1CCCN(Cc2ccc3[nH]ccc3c2)C1`, the “% Inhibition” value is recorded as -2% and the Z score is 0.32.

For `CCc1ccc(-c2cc(C(=O)N[C@@H](C)c3nc(-c4ccncc4)no3)[nH]n2)cc1`, the “% Inhibition” value was -1% and the Z score came out at 0.1.

In the case of `CC(=O)N[C@@H](Cc1c[nH]cn1)C(=O)NC1CCN(C2CCN(C)CC2)CC1`, the “% Inhibition” value is given as -7% and the Z score came to 1.05.

For `CC(C)c1ccc(-c2ncc(CN(C)CC(=O)NC3CC3)s2)cc1`, the “% Inhibition” value is -9% and the Z score is listed as 1.51.

Consider `COc1ccc(CCNc2ccc3cc(C#N)ccc3n2)cc1`, for which the “% Inhibition” value was -7% and the Z score was 1.17.

Turning to `Cc1ccc2c(-c3ccccc3)nc(Nc3nc4ccccc4[nH]3)nc2c1`, the “% Inhibition” value is recorded as -10% and the Z score stood at 1.53.

`CNCCCCNCc1cc(O)c2cc(C)cc(C)c2n1`: the “% Inhibition” value is on record as -8% and the Z score came out at 1.81.

In the case of `CS(=O)(=O)N1CC(Oc2cccnc2)CC1C(=O)N1CCC(N2CCCCC2)CC1` (stereo not given), the “% Inhibition” value was -2% and the Z score came to 0.35.

In the case of `CN1CCN(CC2(C)CCN(C(=O)c3ccc(-c4cnco4)cc3)CC2)CC1`, the “% Inhibition” value was -7% and the Z score turned out to be 1.14.

For the compound `COc1cc2c(cc1OC)[C@@H](NC(=O)c1cccc(Nc3ncccn3)c1)CC2`, the “% Inhibition” value is listed as -5% and the Z score was found to be 0.69.

With `CC(C)[C@@H]1NC(=O)[C@H](C)NC(=O)[C@H]([C@@H](C)O)NC(=O)c2cc(on2)CN(C(=O)C2CCCC2)CCNC1=O`, the “% Inhibition” value is -8% and the Z score turned out to be 1.33.

On to `Oc1nc2ccccc2cc1CN[C@H]1CCCN(c2ccncn2)C1`, for which the “% Inhibition” value was -10% and the Z score is given as 1.45.

Consider `Cc1[nH]c2ccccc2c1-c1cc(-c2ccccc2)nc(-c2ccccc2)c1`, for which the “% Inhibition” value was -8% and the Z score is 1.44.

As to `CCN1C(=O)C[C@@H](CNCc2ccc3cn[nH]c3c2)[C@@H]1c1nccn1C`, the “% Inhibition” value was found to be 4% and the Z score is -0.57.

With `Cc1ccccc1[C@@]1(CC(=O)N(Cc2c(C)nn(C)c2C)C(C)C)CC(=O)N(CCN(C)C)C1=O`, the “% Inhibition” value is reported as -12% and the Z score came out at 2.08.

For the compound `COc1cc2nc(NCC3(N4CCN(C)CC4)CCCC3)cc(C)c2cc1OC`, the “% Inhibition” value turned out to be 55% and the Z score is given as -8.35.

On to `Cc1cc(C(=O)NC2CCN(c3nc(-c4cccs4)nc4ccccc34)CC2)on1`, for which the “% Inhibition” value is on record as -1% and the Z score was found to be 0.26.

For the compound `CCN1CCNC(=O)[C@@H]1CC(=O)N1CC(Oc2ccccc2Cl)C1`, the “% Inhibition” value was -3% and the Z score is listed as 0.57.

For the compound `Cc1nccn1-c1ccccc1CNC1CCC2(CCNCC2)CC1`, the “% Inhibition” value is on record as 10% and the Z score is recorded as -2.05.

In the case of `c1ccc(CCCc2noc(-c3ccc(NC4CCNCC4)nc3)n2)cc1`, the “% Inhibition” value was determined as 1% and the Z score was -0.19.

As to `c1ccc2c(c1)CCO[C@H]2CNC1CCN(c2ccc(-c3cc[nH]n3)cc2)CC1`, the “% Inhibition” value is -7% and the Z score was determined as 1.22.

As for `Nc1nccc(-c2cccc(C(=O)N3CCN(C4CCCCC4)CC3)c2)n1`, the “% Inhibition” value is -5% and the Z score was 0.94.

`CCc1csc(-n2cc(C(=O)NC3CCC4(CCOCC4)CC3)cn2)n1`: the “% Inhibition” value is listed as -1% and the Z score stood at 0.13.

Consider `CN1CCN(C2(CNC(=O)c3ccc(-c4cccc(F)c4)cc3)CCCCC2)CC1`, for which the “% Inhibition” value was determined as 3% and the Z score is -0.54.

In the case of `COc1ccc(C2CC2C(=O)Nc2cnccc2N2CCN(C)CC2)cc1` (stereo not given), the “% Inhibition” value came to 4% and the Z score is -0.74.

For `CC1(N2CCC2)CCC(NC[C@H](O)c2cccc(Cl)c2)CC1` (stereo not given in full), the “% Inhibition” value is recorded as 15% and the Z score is recorded as -2.67.

Take `Cn1cc(C(=O)Nc2ccc(Oc3ccnc4cc(Cl)ccc34)c(F)c2)[nH]c1=O`: the “% Inhibition” value is 1% and the Z score is -0.19.

In the case of `Cc1ccc(-c2nnc(Nc3ccccc3)c3ccccc23)cc1CN1C(=O)c2ccccc2C1=O`, the “% Inhibition” value is reported as 32% and the Z score is listed as -6.95.

Take `Cc1cc(CNCc2cc3ccccc3[nH]2)c(C)c(CN2CCN(C)CC2)c1`: the “% Inhibition” value came out at 21% and the Z score is listed as -3.58.

For `C[C@@H](CCOc1ccccc1)C(=O)Nc1ccc(-n2cc(CO)nn2)cc1`, the “% Inhibition” value was -2% and the Z score is given as 0.38.

As for `CC1CCCCC1OCC(=O)N1CCNC(=O)C1c1cccs1` (stereo not given), the “% Inhibition” value was -12% and the Z score is on record as 1.79.

`c1cc(-c2noc(C34CCCN(CCC3)C4)n2)cc(-n2ccnc2)c1`: the “% Inhibition” value is recorded as 9% and the Z score is -1.87.
